In publication PMC4336329 (PLoS ONE, 2015):
Out of some 310,000 compounds screened, about 14,000 (4.5%) showed an effect of 50% or more. The effect is printed as a negative number. The list shows a part of the results.

molecular target: human ether-à-go-go-related gene (hERG) potassium channel (human, UniProt Q12809); assay: primary screen, population patch clamp on CHO cells stably expressing hERG
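Also: peak tail current of the secondary pulse compared with the same well before compound.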

human ether-à-go-go-related gene (hERG) potassium channel, sequence (Q12809 whole entry, looked up): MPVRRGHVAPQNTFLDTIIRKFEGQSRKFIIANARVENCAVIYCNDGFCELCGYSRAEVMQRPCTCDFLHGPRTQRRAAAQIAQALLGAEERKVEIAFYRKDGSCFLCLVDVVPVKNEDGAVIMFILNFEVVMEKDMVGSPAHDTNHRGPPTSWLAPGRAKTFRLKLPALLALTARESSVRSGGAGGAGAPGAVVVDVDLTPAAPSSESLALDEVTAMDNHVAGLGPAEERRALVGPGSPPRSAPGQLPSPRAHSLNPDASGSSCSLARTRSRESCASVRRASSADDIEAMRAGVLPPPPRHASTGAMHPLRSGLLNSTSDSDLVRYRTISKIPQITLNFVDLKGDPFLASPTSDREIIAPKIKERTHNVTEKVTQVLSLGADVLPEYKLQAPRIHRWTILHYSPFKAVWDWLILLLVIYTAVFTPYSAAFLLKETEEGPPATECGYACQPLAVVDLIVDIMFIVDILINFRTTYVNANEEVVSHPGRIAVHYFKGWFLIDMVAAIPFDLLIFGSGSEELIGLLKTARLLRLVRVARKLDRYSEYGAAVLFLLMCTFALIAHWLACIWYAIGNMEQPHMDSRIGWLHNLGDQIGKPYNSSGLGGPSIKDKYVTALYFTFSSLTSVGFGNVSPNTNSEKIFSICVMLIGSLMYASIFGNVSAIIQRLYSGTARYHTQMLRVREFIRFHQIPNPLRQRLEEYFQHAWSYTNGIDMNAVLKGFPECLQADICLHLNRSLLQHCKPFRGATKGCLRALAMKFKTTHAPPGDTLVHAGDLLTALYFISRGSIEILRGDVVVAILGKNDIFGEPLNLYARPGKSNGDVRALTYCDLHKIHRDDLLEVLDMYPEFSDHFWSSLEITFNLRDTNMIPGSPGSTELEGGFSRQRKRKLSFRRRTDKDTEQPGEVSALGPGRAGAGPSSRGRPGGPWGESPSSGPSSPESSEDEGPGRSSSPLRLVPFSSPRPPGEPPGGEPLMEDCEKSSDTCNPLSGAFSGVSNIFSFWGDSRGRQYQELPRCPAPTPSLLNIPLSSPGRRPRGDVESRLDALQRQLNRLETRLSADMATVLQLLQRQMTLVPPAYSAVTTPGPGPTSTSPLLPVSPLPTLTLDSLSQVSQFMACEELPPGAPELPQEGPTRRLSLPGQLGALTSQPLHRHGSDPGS

**Q.** How did the “hERG current change (%, negative = inhibition) at 10uM” value turn out when CC1C(C)N1CC(O)Cn1ccnc1[N+](=O)[O-] (stereo not shown) was run?
**A.** The value was -6.85%.

**Q.** With CCC(C)(C)NC(=O)c1ccccc1Oc1ccccc1 as the compound, how does the “hERG current change (%, negative = inhibition) at 10uM” value read?
**A.** The value was -29.9%.

**Q.** Which “hERG current change (%, negative = inhibition) at 10uM” value does the source give for CN(C(=O)CN1C(=O)CCSc2ccc(S(=O)(=O)N3CCCC3)cc21)c1ccccc1 here?
**A.** Its value is -1.46%.

**Q.** With O=C(CSc1nc2ccccc2[nH]1)N=Nc1c(O)[nH]c2ccccc12 as the compound, how does the “hERG current change (%, negative = inhibition) at 10uM” value read?
**A.** Its value is -4.91%.

**Q.** For Cc1cc([N+](=O)[O-])nn1CC(=O)Nc1ccc(Cl)cn1, which “hERG current change (%, negative = inhibition) at 10uM” value is on record?
**A.** Its value is -0.173%.

**Q.** With Cc1ccc(C(=O)Nc2cccc(C(=O)O)c2)cc1S(=O)(=O)N1CCCCC1 as the compound, how does the “hERG current change (%, negative = inhibition) at 10uM” value read?
**A.** Its value is 11.4%.

**Q.** Which “hERG current change (%, negative = inhibition) at 10uM” value does the source give for COc1ccc(S(=O)(=O)Cc2ccc(C(=O)NC3CCCCC3)o2)cc1 here?
**A.** The value was -2.17%.

**Q.** For COc1cc(-c2noc(CCCC(=O)Nc3cccnc3)n2)cc(OC)c1OC, which “hERG current change (%, negative = inhibition) at 10uM” value is on record?
**A.** Its value is -10.5%.

**Q.** Which “hERG current change (%, negative = inhibition) at 10uM” value does the source give for O=C(N=C1SC2CS(=O)(=O)CC2N1c1ccccc1Cl)C1CCCO1 (stereo not shown) here?
**A.** The value was 16.3%.

**Q.** With CCn1c(CNC(=O)C(C)(C)C)nc2ccccc21 as the compound, how does the “hERG current change (%, negative = inhibition) at 10uM” value read?
**A.** Its value is -6.07%.

**Q.** With CCCc1nnc(N2C(=O)c3cccc4cccc(c34)C2=O)s1 as the compound, how does the “hERG current change (%, negative = inhibition) at 10uM” value read?
**A.** Its value is 10.3%.

**Q.** Cc1ccc(S(=O)(=O)NCc2cn3ccsc3n2)c(C)c1 was tested. Which “hERG current change (%, negative = inhibition) at 10uM” value did it give?
**A.** The value was -4.33%.

**Q.** CC[C@H]1OC(=O)[C@H](C)[C@@H](O[C@H]2C[C@@](C)(OC)[C@@H](O)[C@H](C)O2)[C@H](C)[C@@H](O[C@@H]2O[C@H](C)C[C@H](N(C)C)[C@H]2O)[C@](C)(O)C[C@@H](C)C(=NOCOCCOC)[C@H](C)[C@@H](O)[C@]1(C)O was tested. Which “hERG current change (%, negative = inhibition) at 10uM” value did it give?
**A.** The value was 17.2%.

**Q.** O=C(c1ccccc1)C(C(=O)N1CCCCC1)n1ccccc1=O (stereo not shown) was tested. Which “hERG current change (%, negative = inhibition) at 10uM” value did it give?
**A.** The value was -2.77%.

**Q.** Which “hERG current change (%, negative = inhibition) at 10uM” value does the source give for COc1cc(N2CCCC2)c(OC)cc1/C=C(/C#N)c1ccc(Br)cc1 here?
**A.** The value was -7.89%.

**Q.** How did the “hERG current change (%, negative = inhibition) at 10uM” value turn out when COC(=O)Cc1c(O)ccn(Cc2ccc(Cl)c(Cl)c2)c1=O was run?
**A.** The value was 10.3%.

**Q.** How did the “hERG current change (%, negative = inhibition) at 10uM” value turn out when Cc1ccc(S(=O)(=O)N2CCN(C(C)C(=O)Nc3ccccc3-c3ccccc3)CC2)cc1 (stereo not shown) was run?
**A.** Its value is -8.46%.

**Q.** Which “hERG current change (%, negative = inhibition) at 10uM” value does the source give for COC(=O)c1ccc(NC(=O)COC(=O)c2cccc3c(=O)c(C)c(-c4ccccc4)oc23)cc1 here?
**A.** The value was 13.5%.

**Q.** For Cc1cccc(-n2c(O)c(C=NCCN3CCCCC3)c(=O)[nH]c2=O)c1, which “hERG current change (%, negative = inhibition) at 10uM” value is on record?
**A.** Its value is -1.46%.

**Q.** For CC1(c2ccccc2)CC(C)(C)N2C(=O)C(=O)c3cccc1c32 (stereo not shown), which “hERG current change (%, negative = inhibition) at 10uM” value is on record?
**A.** The value was 19.6%.

**Q.** For CCOc1ccc(CCNC(=O)COC(=O)C2CC2)cc1OCC, which “hERG current change (%, negative = inhibition) at 10uM” value is on record?
**A.** Its value is 3.41%.

**Q.** For CCC(C)NC(=O)CN1C(=O)NC2NC(=O)NC21 (stereo not shown), which “hERG current change (%, negative = inhibition) at 10uM” value is on record?
**A.** Its value is 10.3%.

**Q.** Which “hERG current change (%, negative = inhibition) at 10uM” value does the source give for CCN(CC)C(=O)Cn1cc(S(=O)(=O)CC(=O)Nc2ccc(OC)c(OC)c2)c2ccccc21 here?
**A.** Its value is -23.2%.

**Q.** Cc1cc(C)cc(-n2nnnc2SCC(=O)Nc2nc(-c3ccc(F)cc3)cs2)c1 was tested. Which “hERG current change (%, negative = inhibition) at 10uM” value did it give?
**A.** Its value is 1.26%.

**Q.** How did the “hERG current change (%, negative = inhibition) at 10uM” value turn out when O=C(NCC1CCCCC1)c1ccc(Br)o1 was run?
**A.** The value was 1.42%.

**Q.** Which “hERG current change (%, negative = inhibition) at 10uM” value does the source give for Cc1cccc(OCC(=O)Nc2nc(-c3ccncc3)cs2)c1 here?
**A.** The value was 7.32%.

**Q.** Which “hERG current change (%, negative = inhibition) at 10uM” value does the source give for COC(=O)c1ccccc1NC(=O)Nc1ccc(C(=O)N2CCCC2)cc1 here?
**A.** Its value is 10.2%.

**Q.** CC(=O)Nc1ccccc1NC(=O)C/C(C)=N/NC(=O)c1ccncc1 was tested. Which “hERG current change (%, negative = inhibition) at 10uM” value did it give?
**A.** Its value is 19.6%.

**Q.** O=C(Nc1ccccc1)NC1CCN(CCCN2C(=O)c3ccccc3C2=O)CC1 was tested. Which “hERG current change (%, negative = inhibition) at 10uM” value did it give?
**A.** Its value is -61.4%.

**Q.** How did the “hERG current change (%, negative = inhibition) at 10uM” value turn out when CC(C)(C)NS(=O)(=O)c1ccc(NC(=S)NC(=O)C2CCC2)cc1 was run?
**A.** The value was 14.2%.

**Q.** O=C(Cn1cncc1-c1ccc([N+](=O)[O-])cc1)Nc1cccc2ccccc12 was tested. Which “hERG current change (%, negative = inhibition) at 10uM” value did it give?
**A.** Its value is 6.12%.

**Q.** Cn1cc(CNCc2ccc(OC(F)(F)F)cc2)c(-c2ccc3c(c2)OCCO3)n1 was tested. Which “hERG current change (%, negative = inhibition) at 10uM” value did it give?
**A.** The value was -43%.

**Q.** CCOC(=O)n1n[n+]([O-])c2ccccc21 was tested. Which “hERG current change (%, negative = inhibition) at 10uM” value did it give?
**A.** Its value is 35.5%.

**Q.** How did the “hERG current change (%, negative = inhibition) at 10uM” value turn out when O=C(NCCCN1CCOCC1)c1cccs1 was run?
**A.** Its value is 18%.

**Q.** How did the “hERG current change (%, negative = inhibition) at 10uM” value turn out when COc1ccc(N2CCN(Cc3nc(N)nc(Nc4ccccc4OC)n3)CC2)cc1 was run?
**A.** The value was -62%.

**Q.** For Cc1cccc2c1-c1sc(C(=O)Nc3cccnc3)cc1CO2, which “hERG current change (%, negative = inhibition) at 10uM” value is on record?
**A.** Its value is 9.26%.

**Q.** Which “hERG current change (%, negative = inhibition) at 10uM” value does the source give for COC(=O)c1ccc(S(=O)(=O)N2Cc3ccccc3C2)cc1 here?
**A.** Its value is 17.8%.

**Q.** CN(C(=O)c1ccc(NC(=O)c2ccco2)cc1)c1ccccc1 was tested. Which “hERG current change (%, negative = inhibition) at 10uM” value did it give?
**A.** The value was 6.66%.

**Q.** Which “hERG current change (%, negative = inhibition) at 10uM” value does the source give for NC(=O)CC(NC(=O)c1ccccc1)c1ccc(NCCCN2CCCC2=O)c([N+](=O)[O-])c1 (stereo not shown) here?
**A.** The value was 9.02%.

**Q.** How did the “hERG current change (%, negative = inhibition) at 10uM” value turn out when CC1=C([N+](=O)[O-])C(c2ccc(Cl)cc2)NC(=O)N1 (stereo not shown) was run?
**A.** The value was 7.82%.

**Q.** How did the “hERG current change (%, negative = inhibition) at 10uM” value turn out when CC(=O)NCCc1nc2cc(NC(=O)COc3cccc(C)c3)ccc2n1C was run?
**A.** The value was 6.53%.

**Q.** For O=C(Cn1cnc(S(=O)(=O)N2CCOCC2)c1)Nc1ccc(OC(F)(F)F)cc1, which “hERG current change (%, negative = inhibition) at 10uM” value is on record?
**A.** Its value is 27.1%.

**Q.** With Nc1ccc2c(c1)nnn2-c1ccccc1 as the compound, how does the “hERG current change (%, negative = inhibition) at 10uM” value read?
**A.** Its value is -7.35%.
